In PMC7819943, “Rice protein-binding microarrays: a tool to detect cis-acting elements near promoter regions in rice”:
This is one part of the list.

molecular target: T1, OsWOX13 (Oryza sativa, UniProt Q5QMM3 1-267); assay: protein-binding microarray (RPBM); PBS, 2% BSA, 51.3 ng/ul salmon testes DNA, 50 uM zinc acetate, 200 nM TF, 25 C, 1 h; high values mean tight binding; conditions: protein: recombinant; tags: N-terminal polyhistidine and DsRed monomer fusion (pET32a); label: CyDye5-dUTP incorporated in the synthesized complementary strand; 3' TTTTT single-stranded linker to array surface; dsDNA, one strand shown
T1 sequence: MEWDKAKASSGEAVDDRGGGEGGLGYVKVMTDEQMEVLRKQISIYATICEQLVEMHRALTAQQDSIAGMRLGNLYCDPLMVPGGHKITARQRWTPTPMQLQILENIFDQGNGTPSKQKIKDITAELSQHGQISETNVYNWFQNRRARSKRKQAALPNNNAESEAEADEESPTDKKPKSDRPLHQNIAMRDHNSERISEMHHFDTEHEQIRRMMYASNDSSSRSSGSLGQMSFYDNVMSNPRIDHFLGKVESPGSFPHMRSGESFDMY
How it was run: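 Using Ni–NTA, transcription factors fused N-terminally to polyhistidine and DsRed were purified after expression in E. coli BL21-CodonPlus. These were incubated at 200 nM with a blocked, double-stranded custom Agilent array for 1 h at 25 °C in a buffer containing 50 µM zinc acetate, and the array was washed. The binding signal is per-feature fluorescence intensity (arbitrary units) on an Axon 4000B scanner.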

Sequence | binding signal
TATAAATAGCCTATGATTTGGCTAAGGTGGTCCGAACTCCCGGAGTCACCTAGTGCAG | 5650 fluorescence intensity (a.u.)
AGAGTTTGATGGATTAGTCTTTGTGCTTCAGTATTTCCACCGGAGTCACCTAGTGCAG | 12800 fluorescence intensity (a.u.)
ATGGGTAGGAGGGTTATTAATTGATGATGTGGTTTGGTTACGGAGTCACCTAGTGCAG | 10900 fluorescence intensity (a.u.)
GATTAATCATGTCACATCAGGAAGATTCATCAGTTGATCACGGAGTCACCTAGTGCAG | 8550 fluorescence intensity (a.u.)
ATTCCAAATTTCCGGTAATTTTGGTCCCATCGGTAAGCACCGGAGTCACCTAGTGCAG | 10400 fluorescence intensity (a.u.)
GGATAATTGTGTACATCAGTTTGGTATGACCTCTATGCACCGGAGTCACCTAGTGCAG | 37000 fluorescence intensity (a.u.)
ATAATATGATGAAATTTACCGAGCAACAAACTTTGTTAATCGGAGTCACCTAGTGCAG | 3380 fluorescence intensity (a.u.)
TTTGAATTTTCATCTATAATTAAATTAAGAAAACAATATGCGGAGTCACCTAGTGCAG | 3570 fluorescence intensity (a.u.)
AGTACAATTGGATGCAATTTATCTTTCTGTAGAAGCGATACGGAGTCACCTAGTGCAG | 3300 fluorescence intensity (a.u.)
GTTGATGATGTGGCTTCTTGCTTGTCTTGCTTTATAGGAGCGGAGTCACCTAGTGCAG | 5720 fluorescence intensity (a.u.)
TGTGATTTGCACCGCATACTTTCCCCGACAATAGATCATCCGGAGTCACCTAGTGCAG | 10800 fluorescence intensity (a.u.)
TTTGACTGTATTACAGTGAAATACTGGAGAAATCTGGGAGCGGAGTCACCTAGTGCAG | 9340 fluorescence intensity (a.u.)
CATGATGTTATACAGTTCCTTAATTGGCACCCCTCCTAAACGGAGTCACCTAGTGCAG | 25400 fluorescence intensity (a.u.)
AATCAATCAATCAATCAATCCCTCCCATTGCTTCACATTTCGGAGTCACCTAGTGCAG | 50200 fluorescence intensity (a.u.)
TTCATGCTTAATTTGCTTCCTTTCTTCCAACAATGGACATCGGAGTCACCTAGTGCAG | 4470 fluorescence intensity (a.u.)
GGTCTATTTATGATTGCTGTGAAGCAAAATCCTTGCTTGGCGGAGTCACCTAGTGCAG | 18200 fluorescence intensity (a.u.)
TGAGTAATTGATAGTGACACGGCTATCCAACCAATCCAGGCGGAGTCACCTAGTGCAG | 65100 fluorescence intensity (a.u.)
CGAATTGCAAATTATTTAACATCTCAGTCATGATATTGCCCGGAGTCACCTAGTGCAG | 9400 fluorescence intensity (a.u.)
ACGTGGGTGATTGCTCCTGCCCAAACCTCTAGTCATGATACGGAGTCACCTAGTGCAG | 10100 fluorescence intensity (a.u.)
GCGATTTGATGAATGGCTTTCTTCAAGTTCATATCATTCGCGGAGTCACCTAGTGCAG | 3390 fluorescence intensity (a.u.)
AATTAGTTTAATTGGTTAGATCCATTGCAAATTGATACATCGGAGTCACCTAGTGCAG | 19900 fluorescence intensity (a.u.)

Sequence | binding signal
AATCATATAGACTTATATAATTATGGGTACTCCCTCCGTCCGGAGTCACCTAGTGCAG | 3700 fluorescence intensity (a.u.)
ATATTTGATTGGTTTGGTGTCACTAAAATTTTAAAACTTACGGAGTCACCTAGTGCAG | 22900 fluorescence intensity (a.u.)
GATGGAATTGACAAATTTCCACAAGAGTTAATGGAGTGCACGGAGTCACCTAGTGCAG | 30900 fluorescence intensity (a.u.)
CTGTCAATCTGCATATATCTGTCTCTCTTACTCACTAACACGGAGTCACCTAGTGCAG | 8750 fluorescence intensity (a.u.)
ACAGAAATTTTATTAGACAAATCAAAATGGAGTTGAACAGCGGAGTCACCTAGTGCAG | 4600 fluorescence intensity (a.u.)
CGTTTTAAATTAGGAACTTAGCCATCAAATAATCCAATTTCGGAGTCACCTAGTGCAG | 7000 fluorescence intensity (a.u.)
ATAGATTTTATTTCCATAATGGTTTAGGATTGGGTAATTTCGGAGTCACCTAGTGCAG | 4860 fluorescence intensity (a.u.)
AGGGAAGACAAATTTAAATTAAATGAAATTCGGAGGCACACGGAGTCACCTAGTGCAG | 14600 fluorescence intensity (a.u.)
TAATAATTAGTGATTAATTATCCTGACCATTGATTCAACACGGAGTCACCTAGTGCAG | 48300 fluorescence intensity (a.u.)
TCTGATTGGATTCACCAAACTGCTTCTTCACGGTAAGACGCGGAGTCACCTAGTGCAG | 33800 fluorescence intensity (a.u.)
TTAATTATTGTAAATGCCTAATTGACTGACCACCAGAAGCCGGAGTCACCTAGTGCAG | 28900 fluorescence intensity (a.u.)
GCTCGATTGGATAATTCTTCTGCATAACTAGCCAGTGGAGCGGAGTCACCTAGTGCAG | 26800 fluorescence intensity (a.u.)
TGCGACTTTGTTTTATCAATTTAAAATTTGAATTTCAAAACGGAGTCACCTAGTGCAG | 3830 fluorescence intensity (a.u.)
ACGTGATGATACACACATAATCGAATCGAATCGATAGATGCGGAGTCACCTAGTGCAG | 3300 fluorescence intensity (a.u.)
ACTAGATTATCCTTTATTATTGGCAGTATCCAGATAAATACGGAGTCACCTAGTGCAG | 6700 fluorescence intensity (a.u.)
GCAATCAATATGGTGATTAGAGTAGTCAAATCAAATGGCACGGAGTCACCTAGTGCAG | 28000 fluorescence intensity (a.u.)
TCAAATTTTAAACAAAATTTTCAACTAAAATATGTATCTACGGAGTCACCTAGTGCAG | 7090 fluorescence intensity (a.u.)
CATTTGATTTTCGGTCTGATTTTGTTATTTCACTGGCAATCGGAGTCACCTAGTGCAG | 24300 fluorescence intensity (a.u.)
ATCACTAATTAGTACTCCAGAACCCATTTTGTGGGAGGACCGGAGTCACCTAGTGCAG | 34800 fluorescence intensity (a.u.)
TCCATTTATCCCGATAATTTGTACTACATTTGTATAGGCCCGGAGTCACCTAGTGCAG | 5670 fluorescence intensity (a.u.)
TAAATTCGTAACTTTAAATTTGGAGCTAATTTTAAGGTTTCGGAGTCACCTAGTGCAG | 6010 fluorescence intensity (a.u.)

Sequence | binding signal
TTGATTGGCTTGGCTGGCTTTGGCTTCCCTGTTCGATATTCGGAGTCACCTAGTGCAG | 40200 fluorescence intensity (a.u.)
CCACTTACATATGTAATTAGTATGTAATTTTCAAATTTACCGGAGTCACCTAGTGCAG | 10700 fluorescence intensity (a.u.)
TCTGGTCATTTAATCAGTGACACATGGGTGATAATATCGACGGAGTCACCTAGTGCAG | 4160 fluorescence intensity (a.u.)
CTTTAATCAGTGCAGTAAATATCATATGTAAATGGCGTAACGGAGTCACCTAGTGCAG | 3810 fluorescence intensity (a.u.)
ACCTGAATCATAACAGGTTAATTAACTAAATCGAAAATGACGGAGTCACCTAGTGCAG | 11900 fluorescence intensity (a.u.)
TAGCTTAATTACATAGCTCCTCCTCCTTTCTCCACTGACTCGGAGTCACCTAGTGCAG | 9260 fluorescence intensity (a.u.)
GTCGACCAATCTTCTTTTCTTGATTTCAATCCATGATCTTCGGAGTCACCTAGTGCAG | 10500 fluorescence intensity (a.u.)
AAATAATAAATTACTCTGGTGAGTTAACCCATAGACCAGTCGGAGTCACCTAGTGCAG | 6030 fluorescence intensity (a.u.)
AGTATAAATTAGAATTTAGACTTCCAGTGGATGAAATCATCGGAGTCACCTAGTGCAG | 17900 fluorescence intensity (a.u.)
ACGTTTAATATTTATAATTAATTTTCAAACATCCGATGTGCGGAGTCACCTAGTGCAG | 19300 fluorescence intensity (a.u.)
GCCAGTGACAGGAACTCGGGAAGCAGTGGAAACAAAGGCCCGGAGTCACCTAGTGCAG | 3200 fluorescence intensity (a.u.)
TAAGACTAATTAAGCTGTCATTAGCACATGTGGGTTACTGCGGAGTCACCTAGTGCAG | 14500 fluorescence intensity (a.u.)
ATTAATCCATAATTAGCAAATGTTTACTGTAGCATCACATCGGAGTCACCTAGTGCAG | 13800 fluorescence intensity (a.u.)
AGTTAGTGATTATATGATTAATCTATGGTCCAAATTATCTCGGAGTCACCTAGTGCAG | 23900 fluorescence intensity (a.u.)
TAAATAATTTTGCTTGAATAATATTTGAAGGGAGAGAGAGCGGAGTCACCTAGTGCAG | 7210 fluorescence intensity (a.u.)
ATTAATTTCTTCAAGCTTCTCACTAGTGATGGACTCATCGCGGAGTCACCTAGTGCAG | 9400 fluorescence intensity (a.u.)
ACTCCAACTAATAATTAACAACAACACACTTCTCATGCATCGGAGTCACCTAGTGCAG | 6040 fluorescence intensity (a.u.)
CAACACATTGCTGTAATTTGCCATCAGCTTTGGCCATCATCGGAGTCACCTAGTGCAG | 3490 fluorescence intensity (a.u.)
TATTTAGATTGAGTTATTTTAGAACGAAGGGAGTACGCACCGGAGTCACCTAGTGCAG | 31800 fluorescence intensity (a.u.)
ATAATTGGCAGCTAGGTTACTGTAGCTGTCGTAGATTGGCCGGAGTCACCTAGTGCAG | 29800 fluorescence intensity (a.u.)
AACTGATCCTAATTAACACTACCCATATACTCTTTTCGTCCGGAGTCACCTAGTGCAG | 6190 fluorescence intensity (a.u.)

Sequence | binding signal
TTCAGAGAGGCTAATTAGTGTGACAAATCGATCCCGATTGCGGAGTCACCTAGTGCAG | 7760 fluorescence intensity (a.u.)
AAGTTTAATTATCACATCGAATATACATACGAACATTTGACGGAGTCACCTAGTGCAG | 7590 fluorescence intensity (a.u.)
GCTGTATGATTAGATGAAGATGATGATGATCTTAGGATTTCGGAGTCACCTAGTGCAG | 24700 fluorescence intensity (a.u.)
TGGCACATAATTTGCTTCCGGCCCATATGAATGTTGGCAGCGGAGTCACCTAGTGCAG | 4770 fluorescence intensity (a.u.)
CCAGATTAGCAATCTTCAGGATTTCACTGACAGAGAACATCGGAGTCACCTAGTGCAG | 26700 fluorescence intensity (a.u.)
ACATCGATCAGGTTTGTCAATTTAAATGAAAATCGACGGTCGGAGTCACCTAGTGCAG | 8600 fluorescence intensity (a.u.)
CAAAACAATCAACGCGTCAACATGGTGATGCTCTGTTTGACGGAGTCACCTAGTGCAG | 11100 fluorescence intensity (a.u.)
ATGATTAACATGTTTATAGGCACATCTGATTTATTCTAGCCGGAGTCACCTAGTGCAG | 36800 fluorescence intensity (a.u.)
TCATCATATTACCAATTTAAACAAGGGACCATTTCCTTGTCGGAGTCACCTAGTGCAG | 3320 fluorescence intensity (a.u.)
TGATGATTGGTTTCTTGGCCAATGGTTTGGTTGTTGTTTTCGGAGTCACCTAGTGCAG | 23100 fluorescence intensity (a.u.)
TATTTGTTACTATTAAATTTAAAATTTTGGATTCATATTACGGAGTCACCTAGTGCAG | 3160 fluorescence intensity (a.u.)
TATTGATAAAATTTGATAAGGTTTATTTTAGCTTCCATCTCGGAGTCACCTAGTGCAG | 4530 fluorescence intensity (a.u.)
CTCAGTCATCTTACACCTGACTGAATTTAAATTCTACAATCGGAGTCACCTAGTGCAG | 4380 fluorescence intensity (a.u.)
TTCAACCATAAATTGAATTGAATAGGACGGATGATGGTTACGGAGTCACCTAGTGCAG | 12700 fluorescence intensity (a.u.)
TTGTCTTGAATTGAAGATAAACAGGGAATCCTGTTATTCACGGAGTCACCTAGTGCAG | 6420 fluorescence intensity (a.u.)
CCCTCAATTAATCGACCCTACGCACCGGAGATGGCTAGACCGGAGTCACCTAGTGCAG | 10300 fluorescence intensity (a.u.)
TGGTCCAGAATGATTATATGTGTAATTTTACCGCAAACCTCGGAGTCACCTAGTGCAG | 5170 fluorescence intensity (a.u.)
GTTGACAGTTTGACATGTGCTTGTAATTCTTTACCATTCTCGGAGTCACCTAGTGCAG | 12300 fluorescence intensity (a.u.)
AAAACTAATTATACAGATTACATGTAAATTGCGAGACGAACGGAGTCACCTAGTGCAG | 18300 fluorescence intensity (a.u.)
GCTTAATTAACAATCAACATAACTACTAACTAGTGTTGTTCGGAGTCACCTAGTGCAG | 57300 fluorescence intensity (a.u.)
ACATTTATATTGATGATAAAATTTTATCTAGATTCTAAATCGGAGTCACCTAGTGCAG | 7600 fluorescence intensity (a.u.)
